Over roughly 110,000 compounds, “z-score” has its median near -0.1; the highest 2% begin near 2. The list shows a part of the results. Activity calls are given as the source filed them.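 How the source made its calls: active means z-score in the third read window above 3 or below -3; inactive means the rest.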
Biological target: Metabotropic glutamate receptor 8 (Rattus norvegicus) (UniProt P70579)
Test: mGluR8 Gi/Go-coupled signaling modulation – cell-based, rat, thallium flux, HTS, primary screen (AID 488969)
Conditions: HEK293 rat mGluR8, GIRK (G protein-gated inwardly rectifying potassium channel) thallium flux, FluoZin2; at 10 µM; stronger effect = higher value; submaximal glutamate (EC20) added with thallium

Sequence of UniProt P70579 (P70579 whole entry, looked up): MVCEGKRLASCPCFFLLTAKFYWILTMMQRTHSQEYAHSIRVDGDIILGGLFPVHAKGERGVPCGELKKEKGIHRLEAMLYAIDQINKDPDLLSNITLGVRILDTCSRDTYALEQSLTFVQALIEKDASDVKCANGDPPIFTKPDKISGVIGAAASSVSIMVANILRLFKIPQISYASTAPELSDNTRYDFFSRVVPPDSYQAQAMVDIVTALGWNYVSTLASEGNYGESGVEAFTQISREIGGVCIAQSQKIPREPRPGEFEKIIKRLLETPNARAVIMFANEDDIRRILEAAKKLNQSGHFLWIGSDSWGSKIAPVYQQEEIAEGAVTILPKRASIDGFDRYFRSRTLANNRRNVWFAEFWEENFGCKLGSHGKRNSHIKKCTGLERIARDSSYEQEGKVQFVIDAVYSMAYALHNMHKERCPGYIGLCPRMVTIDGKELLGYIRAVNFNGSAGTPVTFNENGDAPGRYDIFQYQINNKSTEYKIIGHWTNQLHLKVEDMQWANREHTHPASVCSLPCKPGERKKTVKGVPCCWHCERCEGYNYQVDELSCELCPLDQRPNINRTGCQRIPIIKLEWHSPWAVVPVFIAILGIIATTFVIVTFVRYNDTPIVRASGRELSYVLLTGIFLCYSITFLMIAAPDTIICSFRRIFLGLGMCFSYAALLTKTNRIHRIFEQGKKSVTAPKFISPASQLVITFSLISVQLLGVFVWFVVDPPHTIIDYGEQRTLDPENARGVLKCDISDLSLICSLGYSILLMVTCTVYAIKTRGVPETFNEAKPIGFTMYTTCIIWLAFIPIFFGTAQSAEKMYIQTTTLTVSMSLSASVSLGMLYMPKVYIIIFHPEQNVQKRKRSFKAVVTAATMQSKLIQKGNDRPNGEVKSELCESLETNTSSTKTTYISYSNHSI

Point of comparison: Cc1cccc(Nc2nc(N)c([N+](=O)[O-])c(N3CC(C)CC(C)C3)n2)c1 (stereo unspecified), z-score -0.256. Against it:
- COc1ccc(OC)c(NC(=O)Cn2cc(C(=O)c3ccco3)c3ccccc32)c1 — lower, -0.348
- CCOC(=O)c1c(-c2cccc(C)c2)csc1NC(=O)C1CC=CCC1C(=O)O (stereo unspecified) — lower, -0.428
- Cc1sc(NC(=S)NC(=O)c2ccc(C(C)(C)C)cc2)c(C#N)c1C — lower, -0.261
- Cc1ccc(SC(=O)COc2ccc(C)c(C)c2)cc1 — higher, -0.0165
- CC(=O)Nc1ccc(OCC(O)Cn2c3ccccc3c3ccccc32)cc1 (stereo unspecified) — higher, 0.114
- CN1C(=O)c2cccc(N(C)C)c2C1=O — higher, -0.183
- Cc1ccc(SC(C)C(=O)Nc2cccc(N(C)S(C)(=O)=O)c2)cc1 (stereo unspecified) — higher, -0.229
- Cc1ccc(CCNC(=O)C2CCN(C(=O)N(C)C)CC2)cc1 — lower, -0.692
- COc1cc(/C=N/NC(=O)c2cncc(Br)c2)ccc1OC(=O)c1ccc2c(c1)OCO2 — lower, -0.781
- Cc1cccc(C(=O)NN(C)c2nc(-c3ccccc3)nnc2C(F)(F)F)c1 — higher, 0.215
- C=CCn1c(COc2ccccc2)nnc1SC(C)C(=O)N/N=C/c1cc(Cl)ccc1O (stereo unspecified) — lower, -0.297
- N/C(COc1ccc(Cl)cc1)=N\NS(=O)(=O)c1ccccc1 — higher, -0.154
- Cc1c(C#N)c2ccccc2n1CC(=O)NC(C)c1ccccc1 (stereo unspecified) — higher, -0.0353
- Cc1c(-c2ccc(F)cc2)nc(N)c(C#N)c1-c1cccs1 — higher, -0.00884
- Cc1ccc(Oc2ccccc2/C=C/C(=O)O)cc1 — higher, 0.23
- O=C(COc1ccc(=O)n(-c2ccccc2)n1)Nc1ccccc1 — lower, -0.349
- Cn1ncc([N+](=O)[O-])c1C(=O)Nc1ccc2c(c1)OCCO2 — higher, -0.139
- COC(=O)c1sc(NC(=O)C(C)c2ccccc2)nc1C (stereo unspecified) — lower, -0.32
- CCOc1ccccc1C1CC(c2ccccc2)Nc2nc(N)nn21 (stereo unspecified) — higher, 0.236
- CN1CCN(NC(=O)CN2C(=O)/C(=C/c3ccccc3Cl)SC2=S)CC1 — lower, -0.672
- CCCc1nn2c(=O)c(C(c3cccc(Cl)c3)c3c(O)nc4sc(CCC)nn4c3=O)c(O)nc2s1 — higher, -0.214
- CCOc1ccc(S(=O)(=O)Oc2ccc3ccccc3c2)cc1 — higher, -0.0642
- O=C(NCC(=O)N(CC1CCCO1)C1(C(=O)NC2CCCC2)CCCCC1)c1ccccc1 (stereo unspecified) — lower, -0.361
- O=C(O)CCCC(=O)NCCc1ccncc1 — higher, 0.0989
- N=c1nc(N)nc2n1NC(c1ccc(F)cc1)=CS2 — lower, -0.504
- COCCCN1C(=O)c2ccc(C(=O)Nc3ccc(OC)cc3)cc2C1=O — higher, 0.0601
- CN(Cc1cccs1)S(=O)(=O)c1cccs1 — higher, -0.191
- O=C(/C=C/c1ccc(Br)cc1)NC1CCCCCC1 — higher, 0.112
- Cc1cc(C)c2nc(N3CCN(C)CC3)c(C#N)cc2c1 — lower, -0.416
- Cc1cc(NC(=O)c2cnn3c(C(F)(F)F)cc(-c4ccccc4)nc23)no1 — lower, -0.46
- Cn1c(Cc2ccccc2)nnc1SCC(=O)c1cccs1 — higher, 0.0263
- O=c1[nH]c(CN2CCc3ccccc3C2)nc2ccccc12 — higher, 0.446
- Cc1cc(N(C)NC(=S)Nc2ccccc2)nc(C)n1 — higher, 0.069
- CC1(C)CC(NC(=O)c2cccc3ccccc23)CC(C)(C)N1 — higher, -0.109
- CCOC(=O)CCCCC(=O)c1[nH]c(=O)[nH]c1CSc1nc(C)cc(C)n1 — lower, -0.307
- CCC(c1n[nH]c(=S)n1-c1ccccc1)N(C)C (stereo unspecified) — lower, -0.992
- COc1ccc(OCC#CCNC(C)(C)C)cc1 — higher, 0.0183
- Cc1cc(=O)[nH]c(SCc2csc(-c3ccccc3)n2)n1 — lower, -0.553
- C=CCNC(=O)c1ccc(Cl)cc1Cl — higher, 0.206
- O=C1CSC2(C(=O)N3CCCc4cccc2c43)N1c1cccc(C(F)(F)F)c1 (stereo unspecified) — lower, -0.28
- O=C(CS(=O)(=O)Cc1ccccc1)Nc1ccc(S(=O)(=O)N2CCOCC2)cc1 — higher, -0.109
- NNC(=O)CNC(=O)c1ccc(F)cc1 — lower, -0.271
- COc1cccc(C(=O)NC(=S)Nc2ccc(Cl)c(C(=O)O)c2)c1 — higher, 0.493
- CCN(C(=O)COC(=O)c1cc2ccccc2cc1O)C1CCS(=O)(=O)C1 (stereo unspecified) — higher, -0.0757
- CNC(=O)N1CCN(C(=O)NC)CC1 — higher, -0.168
- Cc1ccc2cc(CN(C)C(=O)C3CCCO3)c(=O)[nH]c2c1 (stereo unspecified) — higher, 0.14
- O=C(Cc1ccccc1)N1CCCC(c2nc(-c3ccc(S(=O)(=O)N4CCCC4)cc3)no2)C1 (stereo unspecified) — higher, -0.104
- COc1ccc(C(=O)COC(=O)c2ccc(NC(=O)c3ccccc3)cc2)cc1 — higher, 0.00806
- O=[N+]([O-])c1cccc(-c2nnn(C34CC5CC(CC(C5)C3)C4)n2)c1 — higher, -0.00482
- CCc1cccc2cc3c(N)c(C(=O)Nc4ccc(S(=O)(=O)N5CCCC5)cc4)sc3nc12 — higher, -0.235
- C=C(Cl)COc1cc(C)cc2oc(=O)cc(CC)c12 — lower, -0.344
- Cc1ccsc1C(=O)OCC(=O)NCCC1=CCCCC1 — higher, -0.248
- CCOc1cc(CNn2cnnc2)cc(Br)c1OCC(=O)NC1CCCCC1 — higher, -0.179
- Cc1ccc(S(=O)(=O)N2CCOCC2)c(C)c1-n1cnnn1 — higher, 0.0967
- CCN(CC)S(=O)(=O)c1ccc(F)c(C(=O)NCCC(C)C)c1 — higher, 0.869
- CCn1c(C(C)NC(=O)c2cccc(C)c2)nc2ccccc21 (stereo unspecified) — lower, -0.392
- COc1ccc(C(=O)Nc2cccc(/C(C)=N/NC(=O)c3ccc([N+](=O)[O-])c(C)c3)c2)cc1OC — higher, -0.168
- COC(=O)C1=C(C)NC(=O)CC1c1ccc(C(=O)OC)cc1 (stereo unspecified) — higher, 0.0197
- COc1ccc(/C=N/OCc2nc3c4c(ncn3n2)Oc2ccc3ccccc3c2C4c2ccccc2)cc1 (stereo unspecified) — higher, 0.386
- CCn1c(SCC(=O)N/N=C/C=C\c2ccccc2[N+](=O)[O-])nc2ccccc21 — higher, 0.631
- CCN(CC)CCCNC(=O)c1cc2c(=O)n(C)c3ccccc3c2n1C — higher, 1.21
- Cc1nn(-c2ccccc2)c(Cl)c1/C=C1/C(=N)N2N=C(C(C)C)SC2=NC1=O — higher, 0.217
- CCOC(=O)Cc1cc(=O)c2c(=O)n(-c3ccccc3)[nH]c2[nH]1 — higher, -0.0705
- Cc1ccc(S(=O)(=O)N(CC(=O)N2CCC(C(N)=O)CC2)c2cccc(C(F)(F)F)c2)cc1 — lower, -0.345
- CCOc1c2ccc(C(=O)NCc3ccc(C)cc3)cc2nn1CCOC — the same, -0.256
- COc1cccc(/C=N/NC(=O)c2ccccc2N(Cc2ccccc2)S(=O)(=O)c2ccccc2)c1OC — lower, -0.653
- CCOc1ccc(N(CC(=O)Nc2ccccc2C)S(=O)(=O)c2c(C)noc2C)cc1 — higher, -0.0568
- O=C(O)c1ccc(-n2nnnc2Oc2cccc3cccnc23)cc1 — higher, -0.137
- O=C(COC(=O)Cc1ccsc1)NCC12CC3CC(CC(C3)C1)C2 — higher, -0.197
- Cc1ccc(S(=O)(=O)c2nc(NCCCn3ccnc3)sc2Cl)cc1 — higher, 0.374
- CCCNC(=O)C(Cc1ccccc1)NS(=O)(=O)c1cccc2nsnc12 (stereo unspecified) — higher, 0.198
- C=CCN(CC=C)C(=S)NCCc1ccc(OC)c(OC)c1 — higher, -0.0119
- CCCC(=O)Nc1ccc(C#Cc2ccccc2)cc1 — higher, 0.26
- CC1CC(C)CN(c2oc(-c3ccccc3Cl)nc2C#N)C1 (stereo unspecified) — lower, -0.32
- CC(C)c1ccccc1NC(=O)COC(=O)c1ccc(Cl)c(S(=O)(=O)N2CCCCCC2)c1 — higher, -0.177
- CN(C1CCCCC1)S(=O)(=O)c1ccc(S(=O)(=O)N2CCN(C(=O)c3ccccc3F)CC2)cc1 — higher, 0.0966
- CCCC(=O)Nc1nc2ccc(OCC)cc2s1 — higher, 0.426
- COc1ccc(Cl)cc1Nc1nc(-c2sc(NC(=O)c3ccccc3)nc2C)cs1 — higher, 0.23
- COc1ccc(CCNC(=O)C2(C)CCC(=O)N2CCC(C)C)cc1OC (stereo unspecified) — higher, 0.67
- CCc1c(C)nc2ncnn2c1Nc1ccc(C)c(C)c1 — higher, 0.364
- O=C(c1ccco1)N1CCN(S(=O)(=O)c2ccc(C3CCCCC3)cc2)CC1 — higher, 0.0683
- Cc1ccc(S(=O)(=O)N(C(=O)c2ccncc2)c2ccc(OC(=O)c3ccncc3)cc2)c(C)c1 — higher, -0.0221
- CC(C)CC1C(C#N)=C(N)SC(N)=C1C#N — higher, 0.615
- COc1ccc(C2C(C#N)=C(N)Oc3c2sc2nc(C)cc(C)c32)cc1 (stereo unspecified) — higher, -0.176
- Fc1ccccc1CSc1nc2ncc(Br)cc2[nH]1 — higher, 1.26
- CC1(C)CC(=O)C=C(N2CCCC2)C1 — higher, 0.182
- CCCNC(=O)N1CCN(C(=O)NCCC)CC1 — higher, 0.192
- COC(=O)CCc1n[nH]c(=O)[nH]c1=O — higher, -0.103
- COc1cccc(C(=O)OCCN2C(=O)c3ccccc3C2=O)c1OC — higher, 0.5
- Cc1cn(C(=O)c2cccc(Br)c2)c(C)n1 — higher, 0.0669
- COc1ccc(C(=O)CC2OC(=O)c3c2ccc(OC)c3OC)cc1 (stereo unspecified) — higher, -0.0894
- COCCCNC(=O)Nc1ccc(F)cc1F — higher, 0.423
- Cc1ccc(N(C(=O)Cn2nnc3ccccc32)C(C(=O)NCc2ccco2)c2cccnc2)cc1 (stereo unspecified) — higher, -0.0932
- CC(C)C(c1nnnn1Cc1ccc(F)cc1)N1CCN(C2CCCCC2)CC1 (stereo unspecified) — higher, -0.0791
- O=C(c1ccc(Cl)c(Cl)c1)N1CCCC1 — higher, 0.0158
- COc1ccc(C(=O)n2nc(-c3ccc(Cl)cc3)nc2N)cc1OC — higher, -0.116
- COc1cc(Cl)c(C)cc1NC(=O)CSc1ccccc1 — higher, -0.18
- Cc1ccc(C)c(NS(=O)(=O)c2ccc(NC(=O)c3ccco3)cc2)c1 — higher, -0.199
- Cc1nn(CC2CCCCC2)c(N)c1-c1ccccc1 — lower, -0.323
- O=C(Nc1ccc(N2CCCCC2)c(Cl)c1)c1ncn[nH]1 — higher, 0.615
- NC(=O)N1CCN(C(=O)c2ccco2)CC1 — higher, 0.536
- CCOc1ccc(S(=O)(=O)N(CC(=O)N/N=C/c2cccs2)c2ccc(C)cc2)cc1 — higher, 0.0399
- Cc1ccc(-n2c(C)cc(/C=N/Nc3ccc([N+](=O)[O-])cn3)c2C)cc1 — higher, -0.189
- COC(=O)c1ccc(NC(C)=O)o1 — higher, 0.0376
- CCC(=O)Nc1cccc(Oc2nc(C)cc(C)c2C#N)c1 — lower, -0.681
- O=C(CCc1ccccc1)n1nc(-c2ccco2)nc1SCc1ccccc1 — higher, 0.379
- COc1ccc2oc(=O)c(C(=O)N3CCN(c4ccccc4C)CC3)cc2c1 — higher, 0.226
- COc1ccc(S(=O)(=O)n2ccc(-c3ccc(OCCN(C)c4ccccn4)cc3)n2)cc1 — higher, 0.589
- O=C(Nc1nccs1)C1C2/C=C\CCCCC21 (stereo unspecified) — higher, 0.175

With CC12CCC(C(=O)N(CSC(=S)N/N=C\c3ccccc3O)C1=O)C2(C)C (stereo unspecified) the z-score was active: 5.76.
